In paper PMC4336329 (PLoS ONE, 2015):
In all, about 310,000 compounds went through this assay and about 14,000 (4.5%) showed an effect of 50% or more. The effect is printed as a negative number. This is one part of the list.

These compounds were tested against human ether-à-go-go-related gene (hERG) potassium channel (human, UniProt Q12809) (assay: primary screen, population patch clamp on CHO cells stably expressing hERG).
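Further: peak tail current of the secondary pulse compared with the same well before compound.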

human ether-à-go-go-related gene (hERG) potassium channel, sequence (Q12809 whole entry, looked up): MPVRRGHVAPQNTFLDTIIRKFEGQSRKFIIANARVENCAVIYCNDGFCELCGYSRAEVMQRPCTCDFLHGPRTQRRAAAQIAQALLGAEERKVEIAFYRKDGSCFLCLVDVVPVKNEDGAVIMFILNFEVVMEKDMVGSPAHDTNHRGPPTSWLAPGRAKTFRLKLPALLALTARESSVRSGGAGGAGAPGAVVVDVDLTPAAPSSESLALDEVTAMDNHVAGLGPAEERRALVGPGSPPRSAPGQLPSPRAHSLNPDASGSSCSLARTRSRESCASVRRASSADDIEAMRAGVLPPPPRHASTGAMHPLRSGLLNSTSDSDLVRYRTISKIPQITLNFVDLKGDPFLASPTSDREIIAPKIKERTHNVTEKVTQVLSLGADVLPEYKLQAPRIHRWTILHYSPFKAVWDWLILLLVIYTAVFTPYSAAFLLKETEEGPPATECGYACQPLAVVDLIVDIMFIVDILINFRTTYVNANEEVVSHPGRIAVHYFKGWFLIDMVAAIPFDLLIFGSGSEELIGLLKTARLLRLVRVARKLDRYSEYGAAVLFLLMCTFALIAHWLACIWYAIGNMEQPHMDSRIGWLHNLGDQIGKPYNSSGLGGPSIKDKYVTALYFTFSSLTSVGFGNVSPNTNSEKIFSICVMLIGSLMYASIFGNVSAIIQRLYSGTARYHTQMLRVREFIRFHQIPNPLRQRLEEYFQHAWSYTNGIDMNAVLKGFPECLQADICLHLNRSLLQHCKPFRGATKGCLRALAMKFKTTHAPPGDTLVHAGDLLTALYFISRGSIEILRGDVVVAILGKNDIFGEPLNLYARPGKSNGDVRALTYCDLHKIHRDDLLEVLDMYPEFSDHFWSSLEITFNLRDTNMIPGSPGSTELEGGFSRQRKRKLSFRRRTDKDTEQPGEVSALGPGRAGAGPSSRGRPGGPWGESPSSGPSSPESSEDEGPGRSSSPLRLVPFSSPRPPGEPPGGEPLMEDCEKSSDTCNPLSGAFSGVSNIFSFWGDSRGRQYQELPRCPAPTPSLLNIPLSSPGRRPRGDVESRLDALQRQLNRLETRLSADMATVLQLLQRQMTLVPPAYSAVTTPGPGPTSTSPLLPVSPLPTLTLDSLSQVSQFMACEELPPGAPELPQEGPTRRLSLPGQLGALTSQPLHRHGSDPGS

Point of comparison: `CC1CCN(C(=O)CSc2nc3c(c(=O)n2C)SC(C)C3)CC1` (stereo not drawn), “hERG current change (%, negative = inhibition) at 10uM” value 1.59%. Against it:
- Cc1ccc(/C=N/NC(=O)CCCOc2ccc(Cl)cc2Cl)cc1 — lower, -1.05%
- C[C@H](NC(=O)c1[nH]cnc1C(=O)Nc1ccc(Cl)cc1)c1ccccc1 — higher, 4.04%
- C=CCN1CN(CCc2ccccc2)CNC1=S — higher, 19.5%
- CCOc1ccc2c(c1)n(CO)c(=S)n2CO — higher, 7.31%
- Nc1ccc(-c2nc3ccc(C(=O)O)cc3s2)cc1 — higher, 29.8%
- COc1ccc(-c2cc3c(=O)n(CC(=O)NCc4ccccc4OC)ncn3n2)cc1 — lower, -14.1%
- Cc1cccc(OCc2nnc(SCC(=O)NC3CCCC3)n2C)c1 — lower, -1.09%
- O=C(COc1ccc(Cl)cc1)NCCCNC(=O)c1cnccn1 — lower, -10.2%
- CN(C(=O)C1CCOC1)c1nnc(C2CCOC2)s1 (stereo not drawn) — higher, 10.1%
- Cc1cc(C)c2c(=O)[nH]n(C3CCOC(C)(C)C3)c2n1 (stereo not drawn) — lower, -3.86%
- CC1CC(C)CN(S(=O)(=O)c2ccc(Cl)cc2)C1 (stereo not drawn) — lower, -0.276%
- O=C(COC(=O)c1ccc(Cl)nc1)NCc1ccco1 — higher, 22.6%
- CC(C)(C)c1ccc(OCCC(=O)NNC(=O)c2ccccc2)cc1 — lower, -9.12%
- CCN(CC)C(=O)COc1ccc(/C=N/NC(=O)c2cc(-c3ccccc3OC)nc3ccccc23)cc1OC — lower, -19.7%
- O=C(C1CCCO1)N1CCN(C(c2ccccc2)c2ccccc2)CC1 (stereo not drawn) — lower, 0.514%
- Cc1ccc(C(=O)NCC2(c3ccccc3)CCCC2)cc1 — lower, -12%
- O=C(Nc1ccccc1C(=O)NC1CCCCC1)c1ccco1 — lower, 1.01%
- CCOc1ccc(C2(C)CC(=O)N(C)C2=O)cc1 (stereo not drawn) — lower, 0.927%
- Cc1cc(C(F)(F)F)n(-c2ccc(N)cc2)n1 — higher, 2.86%
- CCn1c(N2CCN(C(=O)Nc3ccc(F)cc3)CC2)nc2ccccc21 — lower, -68.2%
- COc1ccc(OC)c(NC(=O)c2cccc(NC(=O)c3ccccc3)c2)c1 — lower, -16.8%
- CC(O)[C@H]1CNC(=O)C(=O)N1CCc1cccc(F)c1 (stereo partly drawn) — higher, 21%
- c1cncc(CNc2ncnc3sc4c(c23)CCCC4)c1 — lower, -78%
- Cc1c(C(=O)N2CCOCC2)sc2nc(-c3ccccc3)cn12 — lower, -11.2%
- CC(C(=O)NCc1cccnc1)N1C(=O)c2ccccc2C1=O (stereo not drawn) — higher, 17.4%
- O=c1oc(-c2ccccc2NS(=O)(=O)c2ccc(F)cc2)nc2ccccc12 — higher, 17.1%
- CN(C(=O)c1cccc(S(=O)(=O)N2CCOCC2)c1)c1c(N)n(Cc2ccccc2)c(=O)[nH]c1=O — higher, 15.2%
- CCn1nnnc1-c1ccc(OC)c(S(=O)(=O)Nc2ccc(C(=O)OC)cc2)c1 — higher, 6.44%
- CC(C)C(OC(=O)c1nsc(Cl)c1Cl)C(=O)NCc1ccc2c(c1)OCO2 (stereo not drawn) — higher, 12.5%
- O=C(Nc1ccccc1Oc1ccccc1)C1CC1 — higher, 12.2%
- COc1ccc(C)cc1NC(=O)c1nn(-c2ccccc2)cc1OC — higher, 15.5%
- Cn1c(SCC(=O)OCC(=O)c2ccccc2)nnc1-c1cccs1 — lower, -8.23%
- COc1ccc(NC(=O)CNC(c2ccccc2)c2ccccc2)cc1.O=C(O)C(=O)O — higher, 13.9%
- Fc1ccc(-c2nnc3ccc(N4CCCC4)nn23)cc1 — higher, 5.51%
- CCCCn1c(NCc2ccccc2NS(=O)(=O)c2ccc(C)cc2)nc2ccccc21 — higher, 6.11%
- C/C(=N\NC(=O)CCc1ccccc1)C1C(=O)c2ccccc2C1=O — lower, -4.21%
- CC1CCCCC1NCC#CCOc1ccc(Cl)cc1.O=C(O)C(=O)O (stereo not drawn) — lower, -29.2%
- COc1ccc(-c2cc(C(F)F)nc(-n3nc(C)cc3C)n2)cc1 — higher, 11.7%
- Cn1c(=O)[nH]c(=O)c2c1nc1n2CC(O)CN1c1ccccc1 (stereo not drawn) — higher, 17.2%
- C/C(=N\N(Cc1ccccc1)c1ccccc1)c1ccncc1.O=P(O)(O)O — lower, -24.7%
- Cc1nc(C(C)NC(=O)c2cc(COc3ccc(F)c(F)c3)on2)cs1 (stereo not drawn) — lower, -11.2%
- CCCCC(CC(O)COCC(C)C)C(=O)NNC(=S)Nc1ccccc1 (stereo not drawn) — higher, 9.42%
- Cc1cc(SCC(=O)NC(=O)c2cccn2C)nc2ccccc12 — lower, -24.4%
- CCc1ccc2nc(SCC(=O)N3CCCCC3)c(C#N)cc2c1 — lower, -6.9%
